Test results published in PMC8164048, “Regulation of tau internalization, degradation, and seeding by LRP1 reveals multiple pathways for tau catabolism” (The Journal of Biological Chemistry, 2021).

Target: T1, Full-length human low-density lipoprotein receptor-related protein 1 (LRP1) (human, UniProt Q07954 20-4544)
T1 construct: Written here as one chain; source: purified from placenta
Assay: SPR; full-length LRP1 coupled to the chip (Biacore 3000); single-cycle kinetic titration of tau forms (3.8, 11.5, 34.4, 103.3, 310 nM, 3.5-min injections), with Ca2+; Req from a pseudo first-order fit plotted against concentration, KD by nonlinear regression
Settings: both partners purified

T1 sequence (Q07954 20-4544): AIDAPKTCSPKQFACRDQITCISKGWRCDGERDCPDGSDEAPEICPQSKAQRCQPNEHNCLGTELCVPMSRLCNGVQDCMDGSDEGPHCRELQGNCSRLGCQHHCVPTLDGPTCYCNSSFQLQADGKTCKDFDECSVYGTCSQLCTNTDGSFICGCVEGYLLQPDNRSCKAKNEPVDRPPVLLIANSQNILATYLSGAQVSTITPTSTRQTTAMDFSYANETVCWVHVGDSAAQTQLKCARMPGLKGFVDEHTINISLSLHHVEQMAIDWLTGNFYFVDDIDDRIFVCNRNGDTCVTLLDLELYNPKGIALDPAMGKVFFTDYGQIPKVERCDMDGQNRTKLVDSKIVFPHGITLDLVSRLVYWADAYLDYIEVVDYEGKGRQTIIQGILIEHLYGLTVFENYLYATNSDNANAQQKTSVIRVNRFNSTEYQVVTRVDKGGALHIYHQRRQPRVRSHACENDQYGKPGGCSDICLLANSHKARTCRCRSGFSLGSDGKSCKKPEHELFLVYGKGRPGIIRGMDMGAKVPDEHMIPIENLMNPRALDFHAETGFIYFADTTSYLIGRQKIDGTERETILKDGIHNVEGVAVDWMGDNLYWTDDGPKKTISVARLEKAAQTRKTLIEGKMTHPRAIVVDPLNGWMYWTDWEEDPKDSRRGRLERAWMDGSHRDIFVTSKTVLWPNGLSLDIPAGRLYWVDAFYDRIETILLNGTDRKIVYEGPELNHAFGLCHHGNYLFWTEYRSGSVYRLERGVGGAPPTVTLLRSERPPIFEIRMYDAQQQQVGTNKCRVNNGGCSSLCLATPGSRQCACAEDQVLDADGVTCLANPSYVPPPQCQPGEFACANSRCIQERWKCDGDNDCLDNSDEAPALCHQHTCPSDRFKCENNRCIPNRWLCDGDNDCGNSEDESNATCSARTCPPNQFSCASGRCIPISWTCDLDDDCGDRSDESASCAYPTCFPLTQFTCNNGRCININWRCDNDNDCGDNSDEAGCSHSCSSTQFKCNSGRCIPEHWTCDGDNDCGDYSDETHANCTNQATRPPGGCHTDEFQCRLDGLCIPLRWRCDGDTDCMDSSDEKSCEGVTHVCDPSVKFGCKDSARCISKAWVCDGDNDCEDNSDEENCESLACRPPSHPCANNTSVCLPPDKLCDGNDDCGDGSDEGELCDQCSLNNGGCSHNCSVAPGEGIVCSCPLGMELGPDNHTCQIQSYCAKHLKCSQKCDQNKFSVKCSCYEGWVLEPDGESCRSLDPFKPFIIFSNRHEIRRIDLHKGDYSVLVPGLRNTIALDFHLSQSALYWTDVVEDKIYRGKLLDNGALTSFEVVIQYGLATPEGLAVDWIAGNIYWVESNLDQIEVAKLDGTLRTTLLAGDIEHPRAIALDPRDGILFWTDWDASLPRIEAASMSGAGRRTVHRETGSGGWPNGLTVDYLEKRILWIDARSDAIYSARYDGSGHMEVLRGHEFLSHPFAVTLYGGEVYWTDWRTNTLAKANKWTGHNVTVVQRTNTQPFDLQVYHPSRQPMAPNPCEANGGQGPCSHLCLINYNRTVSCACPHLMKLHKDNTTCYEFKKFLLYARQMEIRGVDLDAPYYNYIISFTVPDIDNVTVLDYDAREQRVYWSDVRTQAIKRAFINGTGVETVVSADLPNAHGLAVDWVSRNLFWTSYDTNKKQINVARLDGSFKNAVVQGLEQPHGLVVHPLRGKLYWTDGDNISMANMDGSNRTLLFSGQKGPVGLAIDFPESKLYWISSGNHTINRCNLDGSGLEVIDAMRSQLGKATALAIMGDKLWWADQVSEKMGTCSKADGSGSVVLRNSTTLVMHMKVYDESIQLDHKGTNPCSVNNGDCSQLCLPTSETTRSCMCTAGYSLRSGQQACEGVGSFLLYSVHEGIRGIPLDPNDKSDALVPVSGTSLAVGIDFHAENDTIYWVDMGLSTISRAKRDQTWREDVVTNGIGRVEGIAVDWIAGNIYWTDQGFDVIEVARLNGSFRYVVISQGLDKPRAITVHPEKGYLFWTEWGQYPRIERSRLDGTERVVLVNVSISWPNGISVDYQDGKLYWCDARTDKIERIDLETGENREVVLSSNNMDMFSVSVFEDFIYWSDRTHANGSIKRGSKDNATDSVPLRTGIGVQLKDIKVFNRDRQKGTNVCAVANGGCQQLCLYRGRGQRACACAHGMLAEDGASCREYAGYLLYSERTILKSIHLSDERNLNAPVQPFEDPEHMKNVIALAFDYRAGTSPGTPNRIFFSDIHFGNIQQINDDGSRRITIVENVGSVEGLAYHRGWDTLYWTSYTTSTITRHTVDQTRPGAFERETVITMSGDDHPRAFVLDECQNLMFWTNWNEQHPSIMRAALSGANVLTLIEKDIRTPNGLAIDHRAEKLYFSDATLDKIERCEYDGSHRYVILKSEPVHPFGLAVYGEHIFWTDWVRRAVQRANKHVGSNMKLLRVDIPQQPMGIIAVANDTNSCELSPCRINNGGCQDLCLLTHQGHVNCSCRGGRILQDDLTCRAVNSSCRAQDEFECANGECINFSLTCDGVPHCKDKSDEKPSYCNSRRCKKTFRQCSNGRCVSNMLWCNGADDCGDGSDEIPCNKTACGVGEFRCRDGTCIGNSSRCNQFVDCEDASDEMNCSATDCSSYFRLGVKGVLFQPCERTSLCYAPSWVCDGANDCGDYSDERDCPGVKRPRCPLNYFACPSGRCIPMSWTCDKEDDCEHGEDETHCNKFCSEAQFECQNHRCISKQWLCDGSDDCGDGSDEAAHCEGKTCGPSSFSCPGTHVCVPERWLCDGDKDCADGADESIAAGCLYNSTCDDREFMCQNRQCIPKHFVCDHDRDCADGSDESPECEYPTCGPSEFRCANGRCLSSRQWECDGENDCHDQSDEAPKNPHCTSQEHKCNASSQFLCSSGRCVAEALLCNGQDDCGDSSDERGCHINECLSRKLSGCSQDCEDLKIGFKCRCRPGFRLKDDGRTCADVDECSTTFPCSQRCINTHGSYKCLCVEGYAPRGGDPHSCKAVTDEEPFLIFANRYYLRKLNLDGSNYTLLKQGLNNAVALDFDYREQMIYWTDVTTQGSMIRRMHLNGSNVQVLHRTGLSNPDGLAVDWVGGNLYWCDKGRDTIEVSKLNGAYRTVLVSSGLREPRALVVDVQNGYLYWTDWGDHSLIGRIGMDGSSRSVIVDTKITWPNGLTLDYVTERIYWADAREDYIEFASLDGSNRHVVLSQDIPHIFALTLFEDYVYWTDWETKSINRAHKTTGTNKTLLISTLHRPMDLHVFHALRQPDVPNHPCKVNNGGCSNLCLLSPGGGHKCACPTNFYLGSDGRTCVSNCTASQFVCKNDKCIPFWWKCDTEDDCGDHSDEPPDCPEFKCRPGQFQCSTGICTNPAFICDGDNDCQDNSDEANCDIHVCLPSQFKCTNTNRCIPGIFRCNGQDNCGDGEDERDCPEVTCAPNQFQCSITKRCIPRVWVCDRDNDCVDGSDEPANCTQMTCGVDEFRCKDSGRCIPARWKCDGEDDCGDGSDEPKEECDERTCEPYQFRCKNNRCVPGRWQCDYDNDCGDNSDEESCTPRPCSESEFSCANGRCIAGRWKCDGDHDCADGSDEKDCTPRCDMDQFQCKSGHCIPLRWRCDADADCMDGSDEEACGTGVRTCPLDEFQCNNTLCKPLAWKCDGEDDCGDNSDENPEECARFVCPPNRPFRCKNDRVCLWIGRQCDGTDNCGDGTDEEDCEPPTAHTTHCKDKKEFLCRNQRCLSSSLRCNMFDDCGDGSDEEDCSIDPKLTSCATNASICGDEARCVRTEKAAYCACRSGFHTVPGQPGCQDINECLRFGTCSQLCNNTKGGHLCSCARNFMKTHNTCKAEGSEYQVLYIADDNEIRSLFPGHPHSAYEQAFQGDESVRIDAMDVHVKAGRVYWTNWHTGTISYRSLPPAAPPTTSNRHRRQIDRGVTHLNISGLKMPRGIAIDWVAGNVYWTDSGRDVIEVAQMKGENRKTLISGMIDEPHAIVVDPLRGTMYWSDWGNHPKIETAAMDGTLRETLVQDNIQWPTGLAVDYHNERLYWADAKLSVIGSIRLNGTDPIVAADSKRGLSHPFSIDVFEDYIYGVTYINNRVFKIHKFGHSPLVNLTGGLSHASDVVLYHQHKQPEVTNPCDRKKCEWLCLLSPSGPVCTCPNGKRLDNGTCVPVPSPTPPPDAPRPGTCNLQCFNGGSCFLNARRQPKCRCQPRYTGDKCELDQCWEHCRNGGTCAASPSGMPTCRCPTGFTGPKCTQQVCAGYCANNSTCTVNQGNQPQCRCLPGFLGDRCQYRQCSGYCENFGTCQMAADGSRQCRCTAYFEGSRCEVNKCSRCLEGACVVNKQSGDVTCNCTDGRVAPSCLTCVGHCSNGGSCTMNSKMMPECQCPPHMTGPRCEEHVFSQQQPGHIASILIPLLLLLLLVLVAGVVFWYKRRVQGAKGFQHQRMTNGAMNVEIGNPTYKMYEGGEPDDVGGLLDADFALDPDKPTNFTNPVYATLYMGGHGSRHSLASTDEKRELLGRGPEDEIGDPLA

Row | Binder | Kd
1 | tau, 2N3R isoform (natural protein, also called 3R tau; source: E. coli, purified) not shown | 278 ± 55 nM
2 | tau microtubule-binding domain (MBD; R1-R4, leu243-glu372) (domain or fragment, also called tau MBD; source: bought: R&D Systems (SP-496)) not shown | 73 ± 18 nM
